{"source": "patent US20160089393A1", "about": "“COMPOSITION AND METHODS FOR COMBATING ANTIBACTERIAL RESISTANT BACTERIA” (BLUEBERRY THERAPEUTICS LIMITED, priority 2013, published 2016)", "key": {"[1]": {"test_system": "EMRSA-15", "assay": "Oxacillin sensitization: growth of EMRSA-15 with peptide, oxacillin and fixed PHMB", "format": "cell-based, methicillin-resistant Staphylococcus aureus (MRSA)"}, "[2]": {"biological_target": "T1, MecA (Penicillin binding protein 2A, PBP2A) (Staphylococcus aureus)", "T1 construct": "The primers were designed so that the first 23 amino acids at the N terminus were deleted; GST (N, cleaved yes); primer-encoded linker LEVLFQGP-M (my own translation of the forward primer); made in house; host or cells: Escherichia coli BL21(DE3)", "assay": "In vitro binding to MecA and block of oxacillin binding", "design": "species or system methicillin-resistant Staphylococcus aureus (MRSA)"}, "[3]": {"test_system": "EMRSA-15", "assay": "Oxacillin sensitization: growth of EMRSA-15 with peptide, oxacillin and fixed PHMB", "format": "cell-based, methicillin-resistant Staphylococcus aureus (MRSA)", "design": "key: 1 indicates growth; 0 indicates no growth", "details": "PHMB 1 ug/ml"}, "[4]": {"test_system": "EMRSA-15", "assay": "Oxacillin sensitization: growth of EMRSA-15 with peptide, oxacillin and fixed PHMB", "format": "cell-based, methicillin-resistant Staphylococcus aureus (MRSA)", "design": "key: 1 is growth; 0 is no growth", "details": "PHMB 0.25 μg/ml"}, "[5]": {"test_system": "EMRSA-15", "assay": "MIC by broth microdilution (antibacterial susceptibility test of EMRSA-15)", "format": "cell-based, methicillin-resistant Staphylococcus aureus (MRSA)"}, "[6]": {"details": "growth media with oxacillin 64 μg/ml"}}}
{"molecule": "HIW: MecA (PBP2A) binding peptide aptamer, Sequence ID No. 3 (protein, Peptide sequence HIW) MHHHHHHSSGLVPCGWLKETAAAKFERQHMDSPDLSTWSHPQFEKGGGSGGGSGGGSWSHPQFEKGTGSGGGSGGGSWSHPQFEKGTGSGGGSGGGSWSHPQFEKGTGSGGGSGGGSWSHPQFEKGTDDDDKAMADIGSEMIPRGLSEAKPATPEIQEIVDKVKPQLEEKTNETYGKLEAVQYKTQVLASTNYYIKVRAGDNKYMHLKVFKSLHIWPITEIRRLVADRVLTGYQVDKNKDDELTGF", "values": [{"measurement": "enhancement of oxacillin activity", "setting": "[1]", "value": "Clear enhancement of oxacillin activity"}, {"measurement": "binding to MecA and block of oxacillin binding", "setting": "[2]", "value": "bind to MecA and block oxycillin binding to MecA"}, {"measurement": "Growth of EMRSA-15", "setting": "[3]; HIW 5 ug/ml, oxacillin 0 ug/ml", "value": 1}, {"measurement": "Growth of EMRSA-15", "setting": "[3]; HIW 5 ug/ml, oxacillin 16 ug/ml", "value": 1}, {"measurement": "Growth of EMRSA-15", "setting": "[3]; HIW 5 ug/ml, oxacillin 32 ug/ml", "value": 1}, {"measurement": "Growth of EMRSA-15", "setting": "[3]; HIW 5 ug/ml, oxacillin 64 ug/ml", "value": 0}, {"measurement": "Growth of EMRSA-15", "setting": "[3]; HIW 10 ug/ml, oxacillin 0 ug/ml", "value": 1}, {"measurement": "Growth of EMRSA-15", "setting": "[3]; HIW 10 ug/ml, oxacillin 16 ug/ml", "value": 0}, {"measurement": "Growth of EMRSA-15", "setting": "[3]; HIW 10 ug/ml, oxacillin 32 ug/ml", "value": 0}, {"measurement": "Growth of EMRSA-15", "setting": "[3]; HIW 10 ug/ml, oxacillin 64 ug/ml", "value": 0}]}
{"molecule": "MecA3136: MecA (PBP2A) binding peptide aptamer, Affimer on Stefin A scaffold, Sequence ID No. 1 (protein, Peptide sequence MecA3136) MHHHHHHSSGLVPCGWLKETAAAKFERQHMDSPDLSTWSHPQFEKGGGSGGGSGGGSWSHPQFEKGTGSGGGSGGGSWSHPQFEKGTGSGGGSGGGSWSHPQFEKGTGSGGGSGGGSWSHPQFEKGTDDDDKAMADIGSEMIPRGLSEAKPATPEIQEIVDKVKPQLEEKTNETYGKLEAVQYKTQVLAKILTLGSTNYYIKVRAGDNKYMHLKVFKSLALELSETPTPKAADRVLTGYQVDKNKDDELTGF", "values": [{"measurement": "Growth of EMRSA-15", "setting": "[4]; MecA3136 0.25 uM, oxacillin 0 ug/ml", "value": 1}, {"measurement": "Growth of EMRSA-15", "setting": "[4]; MecA3136 0.25 uM, oxacillin 16 ug/ml", "value": 1}, {"measurement": "Growth of EMRSA-15", "setting": "[4]; MecA3136 0.25 uM, oxacillin 32 ug/ml", "value": 1}, {"measurement": "Growth of EMRSA-15", "setting": "[4]; MecA3136 0.25 uM, oxacillin 64 ug/ml", "value": 1}, {"measurement": "Growth of EMRSA-15", "setting": "[4]; MecA3136 0.5 uM, oxacillin 0 ug/ml", "value": 1}, {"measurement": "Growth of EMRSA-15", "setting": "[4]; MecA3136 0.5 uM, oxacillin 16 ug/ml", "value": 1}, {"measurement": "Growth of EMRSA-15", "setting": "[4]; MecA3136 0.5 uM, oxacillin 32 ug/ml", "value": 1}, {"measurement": "Growth of EMRSA-15", "setting": "[4]; MecA3136 0.5 uM, oxacillin 64 ug/ml", "value": 0}, {"measurement": "Growth of EMRSA-15", "setting": "[4]; MecA3136 1 uM, oxacillin 0 ug/ml", "value": 1}, {"measurement": "Growth of EMRSA-15", "setting": "[4]; MecA3136 1 uM, oxacillin 16 ug/ml", "value": 1}, {"measurement": "Growth of EMRSA-15", "setting": "[4]; MecA3136 1 uM, oxacillin 32 ug/ml", "value": 1}, {"measurement": "Growth of EMRSA-15", "setting": "[4]; MecA3136 1 uM, oxacillin 64 ug/ml", "value": 0}, {"measurement": "Growth of EMRSA-15", "setting": "[4]; MecA3136 2 uM, oxacillin 0 ug/ml", "value": 1}, {"measurement": "Growth of EMRSA-15", "setting": "[4]; MecA3136 2 uM, oxacillin 16 ug/ml", "value": 1}, {"measurement": "Growth of EMRSA-15", "setting": "[4]; MecA3136 2 uM, oxacillin 32 ug/ml", "value": 0}, {"measurement": "Growth of EMRSA-15", "setting": "[4]; MecA3136 2 uM, oxacillin 64 ug/ml", "value": 0}, {"measurement": "Growth of EMRSA-15", "setting": "[4]; MecA3136 4 uM, oxacillin 0 ug/ml", "value": 1}, {"measurement": "Growth of EMRSA-15", "setting": "[4]; MecA3136 4 uM, oxacillin 16 ug/ml", "value": 0}, {"measurement": "Growth of EMRSA-15", "setting": "[4]; MecA3136 4 uM, oxacillin 32 ug/ml", "value": 0}, {"measurement": "Growth of EMRSA-15", "setting": "[4]; MecA3136 4 uM, oxacillin 64 ug/ml", "value": 0}, {"measurement": "Growth of EMRSA-15", "setting": "[4]; MecA3136 8 uM, oxacillin 0 ug/ml", "value": 1}, {"measurement": "Growth of EMRSA-15", "setting": "[4]; MecA3136 8 uM, oxacillin 16 ug/ml", "value": 0}, {"measurement": "Growth of EMRSA-15", "setting": "[4]; MecA3136 8 uM, oxacillin 64 ug/ml", "value": 0}, {"measurement": "enhancement of oxacillin activity", "setting": "[1]", "value": "clear enhancement of oxacillin activity"}, {"measurement": "binding to MecA and block of oxacillin binding", "setting": "[2]", "value": "bind to MecA and block oxycillin binding to MecA"}, {"measurement": "MIC of EMRSA-15", "setting": "[5]; [6]", "value": ">176", "unit": "µg/mL"}, {"measurement": "MIC of EMRSA-15", "setting": "[5]; growth media: no oxacillin", "value": ">512", "unit": "µg/mL"}]}
{"molecule": "MecA3140: MecA (PBP2A) binding peptide aptamer, Affimer on Stefin A scaffold, Sequence ID No. 2 (protein, Peptide sequence MecA3140) MHHHHHHSSGLVPCGWLKETAAAKFERQHMDSPDLSTWSHPQFEKGGGSGGGSGGGSWSHPQFEKGTGSGGGSGGGSWSHPQFEKGTGSGGGSGGGSWSHPQFEKGTGSGGGSGGGSWSHPQFEKGTDDDDKAMADIGSEMIPRGLSEAKPATPEIQEIVDKVKPQLEEKTNETYGKLEAVQYKTQVLASTNYYIKVRAGDNKYMHLKVFKSLFVVIQPERSNTWADRVLTGYQVDKNKDDELTGF", "values": [{"measurement": "binding to MecA and block of oxacillin binding", "setting": "[2]", "value": "bind to MecA and block oxycillin binding to MecA"}, {"measurement": "MIC of EMRSA-15", "setting": "[5]; [6]", "value": ">176", "unit": "µg/mL"}, {"measurement": "MIC of EMRSA-15", "setting": "[5]; growth media: no oxacillin", "value": ">512", "unit": "µg/mL"}]}
